PubChem BioAssay AID1768 (National Center for Advancing Translational Sciences (NCATS), 2009)
Several values for one entry are separate records, joined by “and”; a condition that tells them apart may be missing. Equal entries are not always repeated. The whole screen tested about 270,000 compounds, of which about 620 (0.23%) were called active. The inconclusive results got no clear call from the source; some entries with a clear call stand among them for comparison. Calls come from the whole dose curve; as a rule, active = well fitted inhibition curve with a large enough effect in the polarisation, with a control signal flat (not every such curve was filed as active); inconclusive = small, poorly fitted or top-dose-only effect, or effect the other way, or a change in a side signal; inactive = no such curve, though single readings can be large or run the other way; the % refers to the polarisation. Potencies beside an inconclusive call are fits to weak or partial responses and may not hold up. “Side channel” marks fits to a control or component signal instead of the main read-out.

Each compound was assayed against Menin (Homo sapiens) (UniProt O00255) (assay: qHTS Assay for Inhibitors Targeting the Menin-MLL Interaction in MLL Related Leukemias: Competition With Texas Red Labeled MLL-derived Mutant Peptide). Settings: fluorescence polarization; FP activity change, negative = inhibition: at 61.6 µM (top of the series).
Potency is the fitted concentration of half-maximal effect; tags give direction and shape of the fitted curve or compound fluorescence and quenching.
Throughout, for FP activity change, negative = inhibition: % of control where 0% means no effect.

Sequence of UniProt O00255 (O00255 whole entry, looked up): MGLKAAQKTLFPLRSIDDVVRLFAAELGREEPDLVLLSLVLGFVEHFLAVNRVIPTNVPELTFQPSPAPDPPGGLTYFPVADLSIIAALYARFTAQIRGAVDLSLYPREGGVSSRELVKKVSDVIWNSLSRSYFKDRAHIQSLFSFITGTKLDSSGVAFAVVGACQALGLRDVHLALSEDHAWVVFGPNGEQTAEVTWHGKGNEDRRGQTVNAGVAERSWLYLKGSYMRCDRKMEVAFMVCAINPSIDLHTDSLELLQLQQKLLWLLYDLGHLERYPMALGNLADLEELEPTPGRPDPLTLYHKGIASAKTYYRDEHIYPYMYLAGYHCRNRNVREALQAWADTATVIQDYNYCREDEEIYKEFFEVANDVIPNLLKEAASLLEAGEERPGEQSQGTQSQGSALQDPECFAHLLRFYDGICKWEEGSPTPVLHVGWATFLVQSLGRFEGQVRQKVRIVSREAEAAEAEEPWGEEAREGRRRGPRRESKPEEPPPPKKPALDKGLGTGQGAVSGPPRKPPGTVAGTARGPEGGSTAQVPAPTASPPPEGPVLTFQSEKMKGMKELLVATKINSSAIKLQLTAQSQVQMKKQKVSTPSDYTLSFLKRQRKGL

SMILES	Potency	FP activity change, negative = inhibition
COc1ccc(NC(=O)CN2C(=O)NC(c3ccccc3)(c3ccccc3)C2=O)cc1	inconclusive: 11.2 µM [quencher, side channel, partial curve]	
Cc1cccc(CNc2ncncc2-c2ccc3c(c2)OCO3)c1	inconclusive: 14.1 µM [inhibitor, partial curve]	
O=C(Nc1nnc(-c2ccccc2Cl)o1)c1nc2ccccc2s1	inconclusive: 28.2 µM [quencher, side channel, single point]	
O=C(Nc1cc(S(=O)(=O)N2CCOCC2)ccc1O)c1ccc(NS(=O)(=O)c2ccc(Cl)s2)cc1	inconclusive: 14.1 µM [quencher, side channel, partial curve]	
COc1ccc(C2=NN(C(=O)c3ccco3)C(c3ccco3)C2)cc1OC (stereo unspecified)	inconclusive: 31.6 µM [fluorescent, side channel, partial curve]	
CS(=O)(=O)CCNCc1nc(-c2ccc3ncnc(Nc4ccc(OCc5cccc(F)c5)c(Cl)c4)c3c2)cs1	inconclusive: 2 µM [quencher, side channel, full curve] and inconclusive: 39.8 µM [fluorescent, side channel, single point]	
NS(=O)(=O)c1cc(C(=O)OCC(=O)Nc2ccc(Cl)cc2[N+](=O)[O-])ccc1Cl	inconclusive: 15.8 µM [quencher, side channel, partial curve]	
COc1ccc(NC(=O)C2CC(=O)N(CCc3ccc(F)cc3)C2)c(OC)c1 (stereo unspecified)	inconclusive: 3.16 µM [inhibitor, single point]	
CCc1cc(=O)oc2c3c(cc(OCC(=O)NCCCOC)c12)OC(C)(C)CC3	inconclusive: 22.4 µM [fluorescent, side channel, partial curve]	
COc1cc(O)cc(/C=C/c2ccccc2)c1	inconclusive: 14.1 µM [quencher, side channel, partial curve]	
O=C(CNC(=O)c1ccc(Cl)cc1)OCC(=O)c1ccccc1		inactive: 1.48%
CC(=O)Nc1ccc(NC(=O)/C=C/c2ccc3c(c2)OCO3)cc1		inactive: -21.2%
O=C(CSc1ccccc1F)NC(=O)NCc1ccco1	inconclusive: 17.8 µM [quencher, side channel, partial curve]	
O=C1Nc2cc(C(F)(F)F)ccc2N2CCCCC12 (stereo unspecified)	inconclusive: 0.708 µM [inhibitor, full curve]	
N#C/C(=C\c1ccc(-c2ccc(S(=O)(=O)N3CCOCC3)cc2)o1)C(=O)NC1CC1	inconclusive: 31.6 µM [quencher, side channel, single point]	
O=C(Nc1cccc(O)c1)c1ccc(C(F)(F)F)cc1	inconclusive: 12.6 µM [quencher, side channel, partial curve]	
O=C(O)CSc1nc(-c2ccc(Cl)cc2)nc2c1oc1ccccc12	inconclusive: 25.1 µM [quencher, side channel, single point]	
CCC(C)(C)n1nnnc1C(c1ccc2ncccc2c1)N1CCN(c2nc3ccccc3s2)CC1 (stereo unspecified)		inactive: 16.6%
CCn1nnc(NC(=O)c2ccc(C(C)(C)C)cc2)n1		inactive: -17.2%

SMILES	Potency	FP activity change, negative = inhibition
N#Cc1ccsc1NC(=O)COC(=O)CCCSc1nc2ccccc2s1	inconclusive: 15.8 µM [quencher, side channel, partial curve]	
Cc1nnc(SCC(=O)N2N=C(c3ccc(Cl)cc3)CC2c2ccco2)[nH]c1=O (stereo unspecified)	inconclusive: 17.8 µM [quencher, side channel, partial curve]	
O=C(Cc1ccccc1)N/N=C/c1cc(Br)cc(Br)c1O	inconclusive: 28.2 µM [quencher, partial curve]	
Cc1cc(C(=O)OCC(=O)c2cccc([N+](=O)[O-])c2)c2cccc(C)c2n1	inconclusive: 31.6 µM [quencher, partial curve]	
Cc1cccc(NC(=S)NCCSc2ccc(Cl)cc2)c1	inconclusive: 31.6 µM [quencher, side channel, single point]	
S=c1[nH]nc(Cc2cccc3ccccc23)o1		inactive: 5.95%
CSc1ccc(S(=O)(=O)Nc2ccc(S(=O)(=O)Nc3ccc(C)cc3)cc2)cc1	inconclusive: 20 µM [quencher, side channel, partial curve]	
Cc1ccc(-c2c[n+](CC(=O)c3ccc(Br)cc3)c3n2CCCCC3)cc1	inconclusive: 1.26 µM [inhibitor, full curve, poor fit]	
Cc1ccc(Nc2nc(N)nc(CSc3nc4ccccc4s3)n2)cc1	inconclusive: 8.91 µM [quencher, side channel, full curve]	
C=CCn1c(-c2cc(Cl)ccc2OC)n[nH]c1=S	inconclusive: 6.31 µM [inhibitor, partial curve]	
CCCC/C=C/[C@H](C)[C@@](C)(COC(=O)c1ccc(Br)cc1)Cc1ccccc1		inactive: -21.2%
OCCN(CC(O)Cn1ccc2ccccc21)CC(O)Cn1ccc2ccccc21 (stereo unspecified)	inconclusive: 3.98 µM [inhibitor, full curve]	
CC(=O)/C=C(\C)Nc1ccc(-c2cnc(-c3ccccc3)o2)cc1	inconclusive: 31.6 µM [quencher, single point]	
COc1cccc(CN2C(=O)NC3(CCCCCC3)C2=O)c1	inconclusive: 3.16 µM [inhibitor, single point]	
CCn1c(SCC(=O)Nc2nc(C)c(C)s2)nnc1-c1ccco1		inactive: 0.304%
O=[N+]([O-])c1ccc(-c2csc(N3CCCCCC3)n2)cc1	inconclusive: 22.4 µM [quencher, side channel, single point]	
COc1ccc(NC(=O)c2c(F)cccc2F)cc1S(=O)(=O)Nc1ccc(Br)cc1	inconclusive: 10 µM [quencher, side channel, partial curve]	
CCOc1cc(/C=C/c2ccc3cccc([N+](=O)[O-])c3n2)ccc1OCC(=O)N(C)C	inconclusive: 14.1 µM [quencher, side channel, partial curve]	
OCc1cccc(Cl)c1Cl		inactive: 7.37%

SMILES	Potency	FP activity change, negative = inhibition
CCC(=O)c1cn(CC(=O)Nc2cccc(OC)c2)c2ccccc12	inconclusive: 39.8 µM [fluorescent, single point]	
O=C(CCCN1CCOC(c2ccccc2)C1)c1ccc(F)cc1 (stereo unspecified)	inconclusive: 28.2 µM [fluorescent, side channel, single point]	
CC(=O)Nc1ccc(S(=O)(=O)Nc2nnc(CC(C)(C)C)s2)cc1	inconclusive: 14.1 µM [quencher, side channel, partial curve]	
CC[C@@H](C)C(NC(=O)OC(C)(C)C)c1cn([C@@H](CCCCNC(=O)OC(C)(C)C)C(=O)N2CCN(C(=O)OC(C)(C)C)CC2)nn1 (stereo partly specified)	inconclusive: 5.01 µM [fluorescent, side channel, full curve]	
CCCCN(CCCC)S(=O)(=O)c1ccc(NS(=O)(=O)c2ccc(NC(C)=O)cc2)cc1	inconclusive: 20 µM [quencher, side channel, single point]	
O=C(NCCCN1CCCCCC1)c1ccc2c(Cl)c3c(nc2c1)CCCC3	inconclusive: 11.2 µM [fluorescent, side channel, partial curve]	
C=CCN1CCN(C(=O)c2cc3c(s2)CCC(CC)C3)CC1 (stereo unspecified)	inconclusive: 20 µM [fluorescent, side channel, partial curve]	
O=C(Nc1ccc(F)c(F)c1)c1cnc(-c2ccccc2)nc1-c1ccccc1	inconclusive: 39.8 µM [inhibitor, single point]	
COc1ccc(S(=O)(=O)Nc2c(C(=O)O)[nH]c3ccccc23)cc1	inconclusive: 28.2 µM [quencher, side channel, single point]	
NC(=O)CC(NC(=O)c1ccccc1)c1ccc(N2CCN(c3ccc(F)cc3)CC2)c([N+](=O)[O-])c1 (stereo unspecified)	inconclusive: 15.8 µM [quencher, side channel, partial curve]	
O=S(=O)(c1ccccc1)N1c2cc(Cl)ccc2Oc2nc3ccccc3nc21	inconclusive: 8.91 µM [quencher, side channel, partial curve]	
COc1ccc2c(c1)-c1c(ssc1=S)C(C)(C)N2	inconclusive: 22.4 µM [quencher, side channel, partial curve]	
COc1ccc(/C=N/NC(=O)c2cccc([N+](=O)[O-])c2)cc1OS(=O)(=O)c1ccc(C)cc1	inconclusive: 11.2 µM [quencher, side channel, partial curve]	
Cc1cc(C)c(S(=O)(=O)Cc2ccccc2)c(OC(C)C)n1	inconclusive: 20 µM [fluorescent, side channel, single point]	
CCOc1ccc(/C=C2\SC(=S)N(CCC(=O)Nc3cccc(C(=O)O)c3)C2=O)cc1	inconclusive: 17.8 µM [quencher, side channel, partial curve]	
COc1ccc(Cl)cc1NC(=O)COC(=O)c1cc(NS(=O)(=O)c2cccs2)ccc1O	inconclusive: 7.94 µM [quencher, side channel, partial curve]	
O=c1oc2ccccc2c(Nc2cccc3ccccc23)c1[N+](=O)[O-]	inconclusive: 14.1 µM [quencher, side channel, partial curve]	
CCOC(=O)N1CCN(CC(O)COc2ccc(C)cc2C(C)(C)C)CC1 (stereo unspecified)	inconclusive: 11.2 µM [fluorescent, side channel, partial curve, poor fit]	
